Over roughly 33,000 sequences, “E-score (-0.5 to 0.5)” has its median near -0.016; the highest 2% begin near 0.32. Some of the results follow.
Biological target: T1, Stp1 (UniProt B3LFK1)
T1 sequence: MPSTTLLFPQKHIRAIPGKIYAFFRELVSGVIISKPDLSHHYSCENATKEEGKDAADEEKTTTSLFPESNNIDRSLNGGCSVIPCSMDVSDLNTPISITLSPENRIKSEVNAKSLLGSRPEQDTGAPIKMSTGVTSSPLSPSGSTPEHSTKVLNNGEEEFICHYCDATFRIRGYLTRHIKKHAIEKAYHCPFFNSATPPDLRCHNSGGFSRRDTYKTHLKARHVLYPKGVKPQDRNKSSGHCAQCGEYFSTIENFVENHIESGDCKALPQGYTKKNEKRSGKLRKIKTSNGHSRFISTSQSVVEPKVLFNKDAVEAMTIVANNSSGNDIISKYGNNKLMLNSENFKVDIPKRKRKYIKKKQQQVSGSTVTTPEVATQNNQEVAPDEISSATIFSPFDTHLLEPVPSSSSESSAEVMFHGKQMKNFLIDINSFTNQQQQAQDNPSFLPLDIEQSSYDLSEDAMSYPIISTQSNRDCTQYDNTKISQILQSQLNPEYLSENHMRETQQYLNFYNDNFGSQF
Test: PBM E-score (8-mer binding enrichment) (E-score (-0.5 to 0.5)); higher = stronger / more preferred TF binding; most listed sequences are background and not binding sites
Settings: protein concentration: 200 nM; construct: GST-full length
Summary of the method: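 Each ungapped eight-base word and its reverse complement, pooled, received an E-score from the Universal PBM Analysis Suite. Underlying scans, normalised with masliner, recorded fluorescent anti-GST bound to GST-tagged yeast transcription factors. These were applied at about 100-200 nM to universal all-10-mer Agilent arrays double-stranded by primer extension.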

| Sequence | PBM E-score |
| --- | --- |
| CGGCCCAC | -0.051 |
| GGCATCGA | 0.327 |
| GAAGCCGA | -0.0348 |
| TAGGGATA | -0.0306 |
| AGACGCCG | 0.405 |
| ACTTCAGA | -0.0204 |
| TAGCGCCA | 0.118 |
| GACAACCA | 0.0428 |
| CGGTCAAC | -0.0662 |
| CAACTGAG | 0.0666 |
| CCTCTTAG | 0.183 |
| CTGGTTAA | 0.111 |
| GGAATAAC | 0.0206 |
| ATGTGGAA | 0.062 |
| CACTCGCG | 0.219 |
| GCTGGGCC | -0.149 |
| CGGGAATC | -0.0825 |
| TATTCACA | 0.0764 |
| TAGTTTGA | 0.106 |
| CTCGTACA | 0.141 |
| AACCGGTG | -0.075 |
| ACGTGTGA | -0.0117 |
| ATCGCGTA | -0.111 |
| AACTCTTC | -0.189 |
| TAAACGTA | -0.0463 |

| Sequence | PBM E-score |
| --- | --- |
| ATAACGCC | 0.316 |
| ACTGTTCG | 0.137 |
| CCTCCTTA | -0.217 |
| AGTAATTA | -0.0328 |
| AGACGAGG | -0.0915 |
| CTATCCCA | -0.202 |
| ACCTATGG | -0.0452 |
| GAGAAACC | -0.185 |
| CCCCGTAG | -0.0863 |
| CTCAATGA | -0.0457 |
| CACTTCGG | -0.0156 |
| GGTTCTCA | -0.0635 |
| ATTATATG | 0.251 |
| AGTGGCAG | 0.0799 |
| CATCCAAA | 0.0865 |
| CGTGCGAC | 0.0732 |
| TAGGACCA | -0.182 |
| ACCTACCC | -0.194 |
| CCAATATC | -0.178 |
| ATCTCACA | -0.102 |
| GTCCGGGA | -0.0291 |
| ATAATTCC | -0.0659 |
| TGCGAAAA | 0.316 |
| CCTCACGA | 0.0853 |
| AGCAAAGC | -0.105 |

| Sequence | PBM E-score |
| --- | --- |
| TAACATTA | 0.0624 |
| GAGCCTAC | -0.0639 |
| ATGAAACG | 0.128 |
| CCCCGTAA | -0.0389 |
| ATTATTGA | 0.103 |
| CCAGCCAC | 0.0299 |
| AAATGTTG | -0.0281 |
| TACATGGA | -0.239 |
| AGAATGCT | 0.0521 |
| GAAAAGTC | -0.0853 |
| AAGAGAGG | 0.0404 |
| ACCCGTTG | -0.0746 |
| ACCGGAAC | -0.0464 |
| AGACGTTG | -0.0721 |
| GGCGCTAA | 0.37 |
| CCTCTCAG | -0.276 |
| GACTCCGC | -0.0827 |
| CTTTGCAA | 0.0807 |
| AAATCGAT | 0.0462 |
| ACTTTAGG | -0.217 |
| ACCTAGAG | -0.171 |
| GTCGGGCA | -0.252 |
| AGTAGTTC | 0.0875 |
| AGGGTTGC | -0.295 |
| CAAGCGCC | 0.219 |

| Sequence | PBM E-score |
| --- | --- |
| CACAGGAC | -0.125 |
| ATAATATA | 0.255 |
| ATCACGTG | 0.181 |
| GAGTGCGC | -0.0794 |
| CGCTCCAG | -0.104 |
| AATTAATA | 0.304 |
| ACAACAAC | 0.0598 |
| ACTCAAAT | 0.125 |
| GACTTAAC | -0.259 |
| ACGCTGTG | 0.0617 |
| ATATGATA | 0.274 |
| GGGAGGTA | -0.145 |
| TCAGAGCA | -0.253 |
| AAATTCCA | 0.24 |
| CATCAGGA | 0.154 |
| AGCCGCTA | 0.119 |
| AGGTGTCG | -0.0942 |
| CTGGCCCA | -0.0956 |
| CAACTTAC | 0.0481 |
| AGACACCC | -0.206 |
| AATCAAGC | -0.0362 |
| AGTGTCTG | -0.115 |
| ACTGATGC | -0.0227 |
| CCTCTCTC | -0.339 |
| CATAATCA | 0.169 |

| Sequence | PBM E-score |
| --- | --- |
| GAGGGTGC | -0.141 |
| AAGTTGAT | 0.0828 |
| CCGGCTTC | -0.0259 |
| TCGTGCAA | 0.288 |
| CGCATGAC | 0.0062 |
| AAGCTTCG | -0.124 |
| ACCCGGTC | -0.323 |
| ACTTATTC | 0.00886 |
| TGACCTAA | 0.0803 |
| CTTTCCGC | 0.0296 |
| AGGTGACT | -0.0726 |
| CATTAGCA | 0.0176 |
| AGGGGGCC | -0.227 |
| CCACATTC | -0.17 |
| GCAGATCC | -0.048 |
| CCCAATAG | -0.0717 |
| AGCGTTTC | -0.0071 |
| GGTAGGTA | -0.264 |
| GCGTCCGA | -0.142 |
| CTAAGATC | -0.0434 |
| AATAATTA | 0.197 |
| ATGGGCGG | -0.0281 |
| AAGTATGG | -0.0353 |
| ATTAGTAC | 0.0504 |
| ATCCTGTG | -0.105 |

| Sequence | PBM E-score |
| --- | --- |
| CCAGTCGG | -0.144 |
| GATAGACA | -0.0511 |
| GAATGTAA | 0.147 |
| CGCGCTAA | 0.227 |
| CGAGCACA | 0.0835 |
| AACGGAAT | 0.228 |
| ACAGCCGA | -0.0659 |
| AGCCTTTG | -0.0934 |
| ACGTAGCA | -0.105 |
| CGCCTTCC | 0.206 |
| AAGGTTAA | -0.0262 |
| CGACGACC | -0.121 |
| GGCGGATA | 0.0304 |
| AAACATTC | -0.077 |
| AGCCGGAA | -0.0322 |
| AGATTAGG | 0.0214 |
| CGTGCGTA | 0.18 |
| GCCAACCA | -0.0582 |
| ATTCCAAC | 0.074 |
| GCCCGGCC | -0.184 |
| ATAGCTTC | -0.113 |
| GATACTAC | 0.0826 |
| CGGTAATA | 0.0511 |
| CTCGGGTC | -0.078 |
| AGGAGGCC | -0.197 |

| Sequence | PBM E-score |
| --- | --- |
| GAATATAA | -0.0429 |
| AGTAGGCA | 0.225 |
| ACGACTCG | -0.171 |
| TCACGACA | 0.0423 |
| CCTCTCCG | -0.0745 |
| AGTGACAA | -0.132 |
| CCCAAAGC | -0.151 |
| TTACGAAA | 0.091 |
| AACTATTG | 0.129 |
| AAGCCATT | 0.0834 |
| AGTAACCC | -0.173 |
| CGATATCG | 0.059 |
| CCCTCAAC | -0.0619 |
| CAGGTAAC | -0.249 |
| CGTATCTA | 0.0863 |
| ACAGAAAC | 0.22 |
| GAAACCTC | -0.167 |
| AGGAGTGC | -0.00186 |
| AGATGAGG | -0.192 |
| GGTGCCGA | 0.288 |
| CTAGAAAC | -0.0852 |
| ACGGTCGG | 0.0266 |
